Self-cleavage data for 34 variants are collected here from the RNAGym collection of RNA variant scans (doi:10.1093/nar/gkz1192).

The source gives no read counts; variants with many changes may rest on few reads.

B1: CPEB3 Ribozyme (parent)
chain: UAACAGGGGGCCACAGCAGAAGCGUUCACGUCGCAGCCCCUGUCAGAUUCUGGUGAAUCUGCGAAUUCUGCUGUAUAUCUC

This data set covers variants of B1. Kind of data set: self-cleavage, relative activity (ratio to wild type); higher = more cleavage; in vitro, sequencing. An outline of the steps:
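Barcoded CPEB3 ribozyme mutants, produced by rounds of error-prone PCR, self-cleaved while being transcribed with T7 RNA polymerase for 5 hours at 37°C and during a subsequent 15 min DNase I step before EDTA was added. Sequencing of template-switched cDNA on Illumina gave cleaved and total reads, and DNA sequencing assigned barcodes to variants. Each variant's relative activity is its cleaved/total read fraction divided by the unmutated ribozyme's fraction, averaged across three batches. A variant needed a minimum of 5 reads.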
As to UAACAGGGGGCCACAGCAGAGGCGUUCACGUCGCAGCCCCUGUCAGAUUCUGGUGAACCUACGAAUUCUGCUGUAUACCUC [A21G U58C G61A U78C], the self-cleavage amounted to 0.17.
Next, UAACAGGGGGCCACAGCAGAGGCGUUCACGUCGCAGCCCCUGUCAGACUCUAGCGAAUCUGUGAAUUCUGCUGUAUAUCUC [A21G U48C G52A U54C C62U]: 0.12; UAACAGGGGGCCACAGCAGAGGCGUUCACGUCGCAGCCCCUGUCAGAUUCUGGUGAAUCUGCGAAUUCCGCCGUAUAUCUU [A21G U69C U72C C81U]: 0.11.
In the case of UAACAGGGGGCCACAGCAGAGGCGUUCACGUCGCAGCCCCUGUCAGAUUCUGGCGAAUCUGCGAAUCCUGCUGUAUAUCUC [A21G U54C U67C], the self-cleavage came to 0.26.
As for UAACAGGGGGCCACAGCAGAUGCGUUCGCGUCGCAGCCCCUGUCAGAUUCAGGUGAAUCUGCGAAUUCUGCUGUAUAUCUC [A21U A28G U51A], the self-cleavage amounted to 0.33.
As to UAACAGGGGGCCACAGCAGAGGCGUUCACGUCGCAGCCCCUGUCAGAUUCUGGUGAAACUGCGAAUUCUGCUGGAUAUCUC [A21G U58A U74G], the self-cleavage was found to be 0.24.
In the case of UAACAGGGGGCCACAGCAGAGGCGUUCACGUCGCAGCCCCUGCCAGAUUCUGGUGAAUCUGCGAAUCCUGCUGUAUAUCUC [A21G U43C U67C], the self-cleavage is 0.17.
On to UAACAGGGGGCCACAGCAGAGGCGUUCACGUCGCAGCCCCUGUCAGAUUCAGGUGAAUCUGCGAAUUCAGCAGUAUAUCCC [A21G U51A U69A U72A U80C], for which the self-cleavage was 0.15.
For UAACAGGGGGCCACAGCAGAGGCGUUCACGUCGCAGCCCCUGCCAGAAUCUGGUGAGUCUGCGAAUUCUGCUGUAUAUCUC [A21G U43C U48A A57G] the value was 0.09; for UAACAGGGGGCCACAGCAGAGGCGUUCACGUCGCAGCCCCUGUCAGAUUCCGGUGAUUCUGCGAAUUCUGCUGUAUAUCUC [A21G U51C A57U], 0.35; for UAACAGGGGGCCACAGCAGAGGCGUUCACGUCGCAGCCCCUGUCAGAUUCUGGUGAAUCUGCGAAUUCUGCCGUAUACCUC [A21G U72C U78C], 0.7.
For UAACAGGGGGCCACAGCAGAGGCGUUCACGUCGCAGCCCCUGUCAGAUUCUGGCGAAUCUGCGAAUUCUGCUGUAGAUCUC [A21G U54C U76G], the self-cleavage is 0.58.
For UAACAGGGGGCCACAGCAGAGGCGUUCACGUCGCAGCCCCUGUCAGAUUCUGGAGAAUCUGCGAAUUCUGCUGUAUAUCUU [A21G U54A C81U] the value was 0.9.
With UAACAGGGGGCCACAGCAGAGGCGUUCACGUCGCAGCCCCUGCCAGAUCCUGGUGAAUCUGCGAAUUCUGCUGUAUAUCUC [A21G U43C U49C], the self-cleavage was 0.48.
Regarding UAACAGGGGGCCACAGCAGAGGCGUUCACGUCGCAGCCCCUGGCAUACUCUGGUGAAUCUGCGAAUUCUGCUGUAUAUCUC [A21G U43G G46U U48C], the self-cleavage worked out at 0.23.
Consider UAACAGGGGGCCACAGCAGAGGCGUUCACGUCGCAGCCCCUGCCAGAUUCCGGUGAAUCUGCGAAUUCUGCUGUACAUCUC [A21G U43C U51C U76C], for which the self-cleavage is 0.18.
For UAACAGGGGGCCACAGCAGAGGCGUUCACGUCGCAGCCCCUGUCAGAUUCUGGUGAACCUGCGAAUUCUGCUGAAUAACUC [A21G U58C U74A U78A] the value was 0.39; for UAACAGGGGGCCACAGCAGAGGCGUUCACGUCGCAGCCCCUGUCAGAUCCUGGUGAAUCUGCGAAUUCUGCUGUAUAUCAC [A21G U49C U80A], 0.24.
Consider UAACAGGGGGCCACAGCAGAGGCGUUCACGUCGCAGCCCCUGUCAGAUCCUGGUGAAUCUGCGAAUUCUGCAGUAUAUCUC [A21G U49C U72A], for which the self-cleavage is 0.07.
For UAACAGGGGGCCACAGCAGAGGCGUUCACGUCGCAGCCCCUGUCAGAUUCUGGUGAAUCUGCGAAUACUGCUGUAUAUUUC [A21G U67A C79U] the value was 0.24; for UAACAGGGGGCCACAGCAGAGGCGUUCACGUCGCAGCCCCUGUCAGAUUCUGGUGAAUCAGCGGACUCUGCUGUAUAUCUC [A21G U60A A64G U66C], 0.13.
For UAACAGGGGGCCACAGCAGAGGCGUUCACGUCGCAGCCCCUGUCAGAUUCUGGCGAAUCUGCGCAUUCUGCUGUAUAUCUC [A21G U54C A64C] the value was 0.46; for UAACAGGGGGCCACAGCAGAGGCGUUCACGUCGCAGCCCCUGUCAGAUACUGGUGAAUCUGCGAAUUCCGCUGCAUAUCUC [A21G U49A U69C U74C], 0.17.
With UAACAGGGGGCCACAGCAGAGGCGUUCACGUCGCAGCCCCUGUCAGAUUCUGGAGAAUCUGCGAAUACCGCUGUAUAUCUC [A21G U54A U67A U69C], the self-cleavage is 0.25.
Take UAACAGGGGGCCACAGCAGAGGCGUUCACGUCGCAGCCCCUGUCAGAUUCUGGCGAAUCUGCGAGUUCUGCUGUAUAUCCC [A21G U54C A65G U80C]: the self-cleavage turned out to be 0.13.
As to UAACAGGGGGCCACAGCAGAGGCGUUCACGUCGCAGCCCCUGUCAGAUCCUGGCGAAUCUGAGAAUUCUGAUGUUUAUCUC [A21G U49C U54C C62A C71A A75U], the self-cleavage was 0.06.
With UAACAGGGGGCCACAGCAGAUGCGUUCGCGUCGCAGCCCCUGUCAGAUUCCGGUGAAUCUGCGAGUUCUGCUGUAUAUCUC [A21U A28G U51C A65G], the self-cleavage worked out at 0.08.
As to UAACAGGGGGCCACAGCAGAGGCGUUCACGUCGCAGCCCCUGUCAGAUUCUGGUGAAUCUGCGAAUCGUGCUGUAUAUCUC [A21G U67C C68G], the self-cleavage worked out at 0.15.
For UAACAGGGGGCCACAGCAGAGGCGUUCACGUCGCAGCCCCUGUCAGACUCUGGUGUACCUGCGAAUUCUGCUGUAUAUCUC [A21G U48C A56U U58C] the value was 0.18.
Regarding UAACAGGGGGCCACAGCAGAGGCGUUCACGUCGCAGCCCCUGUCAGAUCCAGGUGAAUCUGCGAAUUCUGCUGUAUAUCUC [A21G U49C U51A], the self-cleavage was found to be 0.41.
For UAACAGGGGGCCACAGCAGAGGCGUUCACGUCGCAGCCCCUGUCAGAUUCUGGUGAAUCAGCGAAUUCUGCUGUACAUCUC [A21G U60A U76C], the self-cleavage worked out at 0.19.
For UAACAGGGGGCCACAGCAGAGGCGUUCACGUCGCAGCCCCUGUCAGAUUCUGGUGAAUCUGCGAAUUCUGCAGUACAUCUC [A21G U72A U76C] the value was 0.32; for UAACAGGGGGCCACAGCAGAGGCGUUCACGUCGCAGCCCCUGUCAGAUUCUGGUGAAUCGGCGAAUUCUGCUGUAUAUCUA [A21G U60G C81A], 0.27.
Next, UAACAGGGGGCCACAGCAGAGGCGUUCACGUCGCAGCCCCUGUCAGAUUCUGGCGAAUCUGAGAAUUCUGCUGUAUAUCUC [A21G U54C C62A]: 0.08.
